In all, about 48,000 compounds went through this assay and about 1,200 (2.5%) were called active. About 2% were inconclusive and are not listed.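 Rule for the calls: active = activation of at least 60% and not above a set upper limit (about 1 call in 100 departs from these limits); inconclusive = activation of 40% to 60%, or above that upper limit; inactive = activation under 40%.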 The list shows a part of the results.
target: Probable G-protein coupled receptor 32 (Homo sapiens) (UniProt O75388); test: qHTS for Agonists of Human Resolvin D1 Receptor DRV1; settings: CHO-K1 GPR32 beta-arrestin PathHunter luminescence, 90 min; at 76.9 µM; active compounds read high; zero percent set by DMSO-only wells; note: 0% is about no effect
Summary of the method: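 PathHunter enzyme-fragment complementation, CHO-K1 GPR32 stable line; 2,500 cells/well, overnight attach; cpd 90 min 37 °C 5% CO2; detection reagent 1 h RT; chemiluminescence. DMSO = EC0.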

Chain of UniProt O75388 (O75388 whole entry, looked up, the tested form may be a part): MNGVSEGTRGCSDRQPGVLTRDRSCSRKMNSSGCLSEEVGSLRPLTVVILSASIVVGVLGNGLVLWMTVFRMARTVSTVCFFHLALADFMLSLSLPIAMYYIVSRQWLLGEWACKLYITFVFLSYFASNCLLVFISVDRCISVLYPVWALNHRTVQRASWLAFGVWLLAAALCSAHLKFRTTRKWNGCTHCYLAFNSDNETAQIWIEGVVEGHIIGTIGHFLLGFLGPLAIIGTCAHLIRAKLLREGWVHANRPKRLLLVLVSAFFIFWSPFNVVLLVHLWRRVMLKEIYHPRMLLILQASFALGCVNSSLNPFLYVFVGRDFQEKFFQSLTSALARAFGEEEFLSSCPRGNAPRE

activation, inactive:
COCCNC(=O)CCCn1c(SCC(=O)Nc2cccc(C)c2)nc2c(sc3ccccc32)c1=O -15.2%, CC1=C(C(=O)NCCc2ccc(Cl)cc2)C2(CCCCC2)OC1=O 6.97%, COc1ccc(N2CCN(C(c3ccccc3)c3nnc(-c4ccccc4Cl)o3)CC2)cc1 (centres undefined) -32.7%, Cc1cccc(NC(=O)CSc2nc3c(oc4ccccc43)c(=O)n2C(C)C)c1 -1.25%, COc1ccc(C(=O)c2oc3ccccc3c2NC(=O)COc2c(C)cc(C)cc2C)cc1 17.2%, COc1cccc(CNC(=O)c2c(O)nc3ccccn3c2=O)c1 -28.9%, CCOc1ccc(N2CC(c3nc4ccccc4n3CC(C)C)CC2=O)cc1 (centres undefined) -1.64%, COc1cc(-c2noc(-c3ccc(NCCc4ccccc4)c([N+](=O)[O-])c3)n2)cc(OC)c1OC 2.74%, Cc1ccc(C)c(N2CCN(C(=O)c3ccc4c(Cl)c5c(nc4c3)CCCC5)CC2)c1 -38.9%, CC(C)NC[C@@H](O)COc1cccc2ccccc12 6.95%, COc1cc(NC(=O)CCNS(=O)(=O)c2ccc3c(c2)CCN3C(=O)C2CC2)cc(OC)c1 -5.64%, COCC(=O)N1CCc2cc(OC)c(OC)cc2C1COc1ccc2c(C)cc(=O)oc2c1 (centres undefined) -6.52%, O=C(Cn1nnc2sc3c(c2c1=O)CCCC3)Nc1ccc(F)c(Cl)c1 -18.4%, CCN1C(=O)c2ccccc2Sc2ccc(NC(=O)c3ccc(C)c(F)c3)cc21 -10.2%, COc1cccc(NC(CNS(=O)(=O)c2ccc(C)cc2)c2ccccc2)c1 (centres undefined) 30.8%, COc1ccccc1N(CC(=O)NCCSCc1ccc(Cl)cc1)S(C)(=O)=O -3.42%, CN(Cc1ccccc1)c1ncnc2c1nc1n2CCCC1 -6.49%, Cc1ccccc1CNC(=O)CCCn1nc(C)c2sc3ccccc3c2c1=O -20.7%, COc1ccc(C2NC(=O)NC(C)=C2C(=O)Nc2cc(C)cc(C)c2)c(OC)c1 (centres undefined) -0.261%, CCc1c(C)nc2nncn2c1Nc1ccc(C)c(F)c1 -4.08%, CCCS(=O)(=O)NCCc1csc2nc(-c3ccc(OC)cc3)nn12 -10.6%, Cc1cc(-c2ccc(C)c(S(=O)(=O)NCc3ccc(Cl)cc3)c2)on1 14.2%, Cc1ccc(CS(=O)(=O)Cc2ccc(C(=O)NCCc3ccc(Cl)cc3)o2)cc1 -9.5%, CCCCOc1cccc(C(=O)Nc2cccc3ccc(C)nc23)c1 -7.9%
